Laboratory results taken from PubChem BioAssay (NCATS).
This list was built around the results that the source calls inconclusive (neither active nor inactive); the mix of calls is not that of the screen. Potencies beside an inconclusive call are fits to weak or partial responses and may not hold up. Calls of active or inactive are those of the source. Unless noted, calls come from the whole dose curve; as a rule, active = well fitted inhibition curve with a large enough effect; inconclusive = small, poorly fitted or top-dose-only effect; inactive = no such curve, though single readings can be large or run the other way.

Key:
[1] = molecular target: Aldehyde dehydrogenase, mitochondrial (Homo sapiens) (UniProt P05091); assay: qHTS for Inhibitors of the Aldehyde Dehydrogenase Family (ALDH2) Confirmatory screens (AID 2061303; active = well fitted inhibition curve with a large enough effect; inconclusive = small, poorly fitted or top-dose-only effect; inactive = no such curve, though single readings can be large or run the other way; title and protocol of this record describe different tests; note: nearly all actives have a fitted effect of over 45% in size); settings: ALDH inhibition qHTS; activity change, negative = inhibition: at 45.4 µM (top of the series)
[2] = qHTS for Inhibitors of the Aldehyde Dehydrogenase Family (ALDH1A2, ALDH1A3, ALDH2, ALDH3A1) (AID 2061307); settings: ALDH inhibition qHTS; activity change, negative = inhibition: at 50.3 µM (top of the series) unless noted; note: nearly all actives have a fitted effect of over 50% in size; for Potency: test system not described further here
[3] = molecular target: Retinaldehyde dehydrogenase 3 (Homo sapiens) (UniProt P47895); assay: qHTS for Inhibitors of the Aldehyde Dehydrogenase Family (ALDH1A3) Confirmatory screens (AID 2061311); settings: activity change, negative = inhibition: at 46 µM (top of the series); note: nearly all actives have a fitted effect of over 60% in size
[4] = molecular target: Retinal dehydrogenase 2 (Homo sapiens) (UniProt O94788); assay: qHTS for Inhibitors of the Aldehyde Dehydrogenase Family (ALDH1A2) Confirmation screens (AID 2061314); settings: activity, negative = inhibition: at 45.9 µM (top of the series) unless noted; note: nearly all actives have a fitted effect of over 65% in size
[5] = molecular target: Aldehyde dehydrogenase 1A1 (Homo sapiens) (UniProt P00352); assay: qHTS for Inhibitors of the Aldehyde Dehydrogenase Family (ALDH1A1) Confirmatory screens (AID 2061316); settings: activity change, negative = inhibition: at 47.3 µM (top of the series); note: nearly all actives have a fitted effect of over 65% in size
Potency is the fitted concentration of half-maximal effect; tags give direction and shape of the fitted curve.

| Compound | Potency [1] | Potency [2] | Potency [3] | Potency [4] | Potency [5] |
| --- | --- | --- | --- | --- | --- |
| Cc1ccsc1CN(C)c1ncnc2ccc(-c3ccoc3)cc12 | inconclusive: 14.2 µM [inhibitor, partial curve] | inactive | active: 22.5 µM | active: 11.3 µM | inconclusive: 35.7 µM [inhibitor, partial curve, poor fit] |
| COc1ccc(NC(=O)c2[nH]c(C)c(C(C)=O)c2C)cc1S(=O)(=O)Nc1ccc(C#N)cc1 | inconclusive: 15.9 µM [inhibitor, partial curve] | inconclusive: 22.5 µM [inhibitor, partial curve, poor fit] | inconclusive: 12.7 µM [inhibitor, partial curve] | inconclusive: 12.7 µM [inhibitor, partial curve] | active: 11.3 µM |
| Cc1ccc2nc3sc(C(=O)NC4CCCC4)cc3cc2c1 | inactive | inconclusive: 5.99 µM [inhibitor, single point] | inconclusive: 33.7 µM [inhibitor, single point] | inconclusive: 37.8 µM [inhibitor, partial curve, poor fit] | inconclusive: 37.8 µM [inhibitor, single point] |
| O=C1Cc2cc(S(=O)(=O)N3CCN(c4ccc(C(F)(F)F)cc4)CC3)ccc2N1 | inactive | inactive | inactive | inconclusive: 46.1 µM [inhibitor, partial curve] | inactive |
| Cc1oc(-c2ccccc2F)nc1CS(=O)(=O)CC(=O)N1CCN(c2cccc(C(F)(F)F)c2)CC1 | inconclusive: 7.94 µM [inhibitor, full curve, poor fit] | inactive | inactive | inactive | inactive |
| N#Cc1nc(Nc2cccc(Cl)c2)nc(NC2CCCC2)n1 | inconclusive: 11.2 µM [inhibitor, partial curve] | active: 0.708 µM | inconclusive: 17.8 µM [inhibitor, partial curve, poor fit] | inconclusive: 12.7 µM [inhibitor, partial curve, poor fit] | inconclusive: 1 µM [inhibitor, full curve] |
| N#Cc1nc(NCC(F)F)nc(Nc2cc(F)cc(F)c2)n1 | inactive | inconclusive: 0.603 µM [inhibitor, full curve, poor fit] | inconclusive: 14.2 µM [inhibitor, partial curve, poor fit] | inconclusive: 12.7 µM [inhibitor, partial curve, poor fit] | inactive |
| O=C1c2ccccc2C(=O)N1Cc1cccnc1 | inactive | inactive | inconclusive: 0.0283 µM [inhibitor, full curve, poor fit] | inactive | inactive |
| Cc1ccc(N[S+](=O)([O-])c2cc3c(cc2Cl)NC(=O)CO3)cc1Br | inconclusive: 17.9 µM [inhibitor, partial curve] | active: 10.1 µM | inconclusive: 35.7 µM [inhibitor, partial curve, poor fit] | active: 14.2 µM | inconclusive: 17.9 µM [inhibitor, partial curve] |
| NNc1ccc(NC(=O)c2cccs2)cn1 | inconclusive: 12.7 µM [inhibitor, partial curve] | inconclusive: 8.96 µM [inhibitor, partial curve] | active: 11.3 µM | inconclusive: 0.357 µM [inhibitor, full curve, poor fit] | inconclusive: 11.3 µM [inhibitor, partial curve] |
| Oc1ccc(COC2CCN(Cc3ccccc3)C2)c2cccnc12 (stereo not given) | inconclusive: 14.2 µM [inhibitor, partial curve] | inactive | active: 12.7 µM | inactive | inconclusive: 22.5 µM [inhibitor, partial curve] |
| O=C(O)/C(=C/c1c(C(=O)O)[nH]c2cc(Cl)cc(Cl)c12)c1ccccc1 | inconclusive: 25.2 µM [inhibitor, partial curve] | active: 11.3 µM | inactive | inconclusive: 22.5 µM [inhibitor, partial curve] | inconclusive: 12.7 µM [inhibitor, partial curve] |
| CCc1noc(-c2cccn3c(CNC(=O)COc4ccc(F)cc4)nnc23)n1 | inconclusive: 1.12 µM [inhibitor, full curve, poor fit] | inconclusive: 0.0501 µM [inhibitor, full curve, poor fit] | active: 7.08 µM | inconclusive: 12.9 µM [inhibitor, partial curve] | inactive |
